Experimental data reported in PMC7337969.
These are yes or no findings as the source states them, for the method shown. For some of these results: Binding seen in cells or lysates may run through a third protein. Some entries that bind do so weakly or less than the wild type. For some of these results: Tags and fused reporters may be left off the sequences shown.

By UniProt entry, the sequences of proteins in these tests, tags left out.
UniProt Q08297: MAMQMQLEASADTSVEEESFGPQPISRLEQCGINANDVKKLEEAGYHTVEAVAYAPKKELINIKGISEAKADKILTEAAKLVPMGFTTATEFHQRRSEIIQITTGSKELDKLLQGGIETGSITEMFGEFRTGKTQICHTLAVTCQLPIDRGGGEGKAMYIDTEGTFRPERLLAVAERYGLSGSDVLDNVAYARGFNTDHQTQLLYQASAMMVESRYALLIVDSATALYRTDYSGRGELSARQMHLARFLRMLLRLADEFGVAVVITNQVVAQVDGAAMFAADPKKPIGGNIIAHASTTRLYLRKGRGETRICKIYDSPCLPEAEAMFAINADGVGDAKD
UniProt Q62193: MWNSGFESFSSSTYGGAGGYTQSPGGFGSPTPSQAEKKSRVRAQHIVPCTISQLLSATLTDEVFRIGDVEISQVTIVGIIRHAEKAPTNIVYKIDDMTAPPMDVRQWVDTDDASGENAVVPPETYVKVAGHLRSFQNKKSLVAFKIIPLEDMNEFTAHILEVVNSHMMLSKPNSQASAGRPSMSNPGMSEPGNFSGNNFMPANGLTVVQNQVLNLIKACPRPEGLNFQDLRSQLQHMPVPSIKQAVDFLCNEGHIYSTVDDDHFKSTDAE
UniProt Q9CQ71: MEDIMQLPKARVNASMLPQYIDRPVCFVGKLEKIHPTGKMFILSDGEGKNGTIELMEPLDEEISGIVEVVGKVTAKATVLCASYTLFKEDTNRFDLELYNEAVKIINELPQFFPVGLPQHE

Key:
[1] = target: T1, DMC1, yeast two-hybrid bait (mouse) (UniProt Q61880); assay: two-hybrid; MEIOK21 in pGADT7 as prey, partners in pGBKT7 as bait, co-transformed into Y2H gold strain; tested on SD-Leu-Trp-His plates
T1 sequence: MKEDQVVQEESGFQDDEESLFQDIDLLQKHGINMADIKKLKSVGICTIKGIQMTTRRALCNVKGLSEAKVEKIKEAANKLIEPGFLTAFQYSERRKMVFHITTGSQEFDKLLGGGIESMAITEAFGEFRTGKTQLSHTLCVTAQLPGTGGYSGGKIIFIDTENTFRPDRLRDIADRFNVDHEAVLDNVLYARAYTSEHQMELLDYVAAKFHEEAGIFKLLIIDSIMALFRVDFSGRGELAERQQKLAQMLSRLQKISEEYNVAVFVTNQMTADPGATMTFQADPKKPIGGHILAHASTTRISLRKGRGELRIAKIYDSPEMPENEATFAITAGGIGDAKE

[2] = target: T2, HSF2BP, yeast two-hybrid bait (mouse) (UniProt Q9D4G2); assay: as above
T2 sequence: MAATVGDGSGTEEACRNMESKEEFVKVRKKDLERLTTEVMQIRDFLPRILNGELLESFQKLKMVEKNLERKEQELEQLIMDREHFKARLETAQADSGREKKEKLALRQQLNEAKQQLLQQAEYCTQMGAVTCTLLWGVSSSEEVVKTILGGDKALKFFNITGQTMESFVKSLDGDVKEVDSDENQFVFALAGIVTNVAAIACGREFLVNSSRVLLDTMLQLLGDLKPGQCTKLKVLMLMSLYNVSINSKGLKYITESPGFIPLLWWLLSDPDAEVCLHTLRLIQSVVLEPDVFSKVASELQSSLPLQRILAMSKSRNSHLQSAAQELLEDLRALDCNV

[3] = target: RAD51, yeast two-hybrid bait (mouse) (UniProt Q08297); assay: as above
[4] = target: RPA2, yeast two-hybrid bait (mouse) (UniProt Q62193); assay: as above
[5] = target: RPA3, yeast two-hybrid bait (mouse) (UniProt Q9CQ71); assay: as above
[6] = target: T3, SPATA22, yeast two-hybrid bait (mouse) (UniProt Q5SV06); assay: as above
T3 sequence: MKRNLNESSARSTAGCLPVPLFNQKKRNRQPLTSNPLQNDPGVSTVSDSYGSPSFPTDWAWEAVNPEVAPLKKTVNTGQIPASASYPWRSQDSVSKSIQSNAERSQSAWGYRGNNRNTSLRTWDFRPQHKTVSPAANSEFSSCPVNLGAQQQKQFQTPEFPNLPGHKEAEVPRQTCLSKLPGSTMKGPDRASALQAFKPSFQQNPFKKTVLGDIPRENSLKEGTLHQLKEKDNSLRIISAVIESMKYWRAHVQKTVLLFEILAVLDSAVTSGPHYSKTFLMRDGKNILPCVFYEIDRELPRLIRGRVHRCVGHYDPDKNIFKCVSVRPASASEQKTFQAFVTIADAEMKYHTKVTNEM

[7] = target: T4, MEIOK21, endogenous in mouse testis (mouse (endogenous in testis)) (UniProt Q6DIA7); assay: co-IP; endogenous proteins in WT mouse testis extract (~200 mg), precipitated with anti-MEIOK21 antibody; IgG and Meiok21-/- testis lysate as negative controls; lysis buffer 50 mM Tris-HCl pH 8.0, 120 mM NaCl, 1% NP-40
T4 sequence: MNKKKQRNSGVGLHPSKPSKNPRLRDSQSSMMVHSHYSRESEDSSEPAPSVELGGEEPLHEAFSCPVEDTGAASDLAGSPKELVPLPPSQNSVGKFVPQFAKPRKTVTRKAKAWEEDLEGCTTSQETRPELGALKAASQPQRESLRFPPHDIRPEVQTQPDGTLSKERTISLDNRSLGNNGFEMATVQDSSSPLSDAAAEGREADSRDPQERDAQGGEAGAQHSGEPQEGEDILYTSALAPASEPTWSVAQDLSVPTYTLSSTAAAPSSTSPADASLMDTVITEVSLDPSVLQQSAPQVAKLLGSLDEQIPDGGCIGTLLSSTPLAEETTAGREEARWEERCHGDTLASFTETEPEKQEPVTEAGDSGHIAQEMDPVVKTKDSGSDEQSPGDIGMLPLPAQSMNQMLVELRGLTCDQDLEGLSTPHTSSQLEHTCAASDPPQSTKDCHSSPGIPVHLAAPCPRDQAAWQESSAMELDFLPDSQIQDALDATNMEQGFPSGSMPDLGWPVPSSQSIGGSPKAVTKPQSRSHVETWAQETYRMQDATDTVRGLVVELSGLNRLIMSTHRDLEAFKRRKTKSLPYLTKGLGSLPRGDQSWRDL

[8] = target: T5, GFP-tagged full length MEIOK21 (mouse) (UniProt Q6DIA7); assay: co-IP; FLAG-tagged HSF2BP and GFP-tagged MEIOK21 (full length or truncations) co-transfected into HEK-293T cells, lysed after 48 hours, precipitated with GFP antibody; IgG as control
T5 sequence: T4 sequence

[9] = target: T6, MEIOB, yeast two-hybrid bait (mouse), Q9D513; assay: two-hybrid; MEIOK21 in pGADT7 as prey, partners in pGBKT7 as bait, co-transformed into Y2H gold strain; tested on SD-Leu-Trp-His plates; conditions: remark: other sources report otherwise
T6 chain: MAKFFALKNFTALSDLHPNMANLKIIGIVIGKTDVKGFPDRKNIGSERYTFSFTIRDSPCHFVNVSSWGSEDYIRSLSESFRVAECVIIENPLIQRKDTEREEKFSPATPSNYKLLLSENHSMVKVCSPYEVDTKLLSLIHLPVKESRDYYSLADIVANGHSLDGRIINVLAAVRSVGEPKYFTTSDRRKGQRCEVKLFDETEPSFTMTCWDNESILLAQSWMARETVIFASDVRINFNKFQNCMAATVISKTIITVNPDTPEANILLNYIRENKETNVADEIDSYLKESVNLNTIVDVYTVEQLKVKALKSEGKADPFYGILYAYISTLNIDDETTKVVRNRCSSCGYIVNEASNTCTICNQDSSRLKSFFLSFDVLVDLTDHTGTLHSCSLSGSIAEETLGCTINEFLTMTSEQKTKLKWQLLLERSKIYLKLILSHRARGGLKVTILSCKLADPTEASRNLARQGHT

[10] = target: T7, RPA1, yeast two-hybrid bait (mouse), Q8VEE4; assay: as above; conditions: remark: other sources report otherwise
T7 chain: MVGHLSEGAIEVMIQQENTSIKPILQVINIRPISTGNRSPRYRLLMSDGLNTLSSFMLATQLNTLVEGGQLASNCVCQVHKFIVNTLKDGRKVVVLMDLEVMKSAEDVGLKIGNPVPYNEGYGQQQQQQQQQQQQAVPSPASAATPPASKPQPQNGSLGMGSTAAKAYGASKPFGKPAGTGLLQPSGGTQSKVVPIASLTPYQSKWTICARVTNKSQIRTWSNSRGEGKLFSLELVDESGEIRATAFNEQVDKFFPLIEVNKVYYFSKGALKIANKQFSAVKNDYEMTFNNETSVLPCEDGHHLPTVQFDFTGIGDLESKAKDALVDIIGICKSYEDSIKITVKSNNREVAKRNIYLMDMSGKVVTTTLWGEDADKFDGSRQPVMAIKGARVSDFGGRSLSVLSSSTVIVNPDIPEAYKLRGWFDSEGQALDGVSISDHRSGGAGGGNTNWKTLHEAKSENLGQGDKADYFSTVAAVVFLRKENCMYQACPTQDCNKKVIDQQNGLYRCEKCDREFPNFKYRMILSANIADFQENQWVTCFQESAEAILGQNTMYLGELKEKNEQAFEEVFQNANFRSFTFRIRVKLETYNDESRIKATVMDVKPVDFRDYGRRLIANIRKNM

B1: MEIOK21 (meiosis-specific 4930432K21RIK), yeast two-hybrid prey (protein, UniProt Q6DIA7-1 1-600)
chain: T4 sequence
B1 was tested, and the binding [1] was “no binding”, the binding [2] was “binds” and the binding [3] was “no binding”. The binding [4] was “no binding”, the binding [5] was “no binding” and the binding [6] was “no binding”.

B2: HSF2BP, endogenous in mouse testis (protein, UniProt Q9D4G2 1-338)
chain: T2 sequence
In the case of B2, the binding [7] is reported as “binds”.

B3: FLAG-tagged HSF2BP coiled-coil domain (a.a. 1-92) (domain or fragment, UniProt Q9D4G2 1-92)
chain: MAATVGDGSGTEEACRNMESKEEFVKVRKKDLERLTTEVMQIRDFLPRILNGELLESFQKLKMVEKNLERKEQELEQLIMDREHFKARLETA
In the case of B3, the binding [8] is reported as “binds”.

B4: MEIOK21 (meiosis-specific 4930432K21RIK), yeast two-hybrid prey, Q6DIA7-1 1-600 (protein)
chain: T4 sequence
B4 was tested, and the binding [9] was “no binding” and the binding [10] was “no binding”.
